Measured values reported in patent US12662541B2, “Antibody-drug conjugates against the receptor tyrosine kinase EphA5” (Rutgers, The State University of New Jersey, priority 2021, dated 2026).

B1: VH5/VK3: humanized anti-EphA5 IgG1/kappa antibody, heavy chain SEQ ID NO:39, light chain SEQ ID NO:40 (antibody)
heavy: EVQLVESGGGLVQPGGSLKLSCAASGFTFSTFGIHWVRQAPGKGLEWVAYISGASTTIYYADSVKGRFTISRDNSKNTLYLQMNSLRAEDTAVYYCARYGTSFPYGLDYWGQGTLVTVSSASTKGPSVFPLAPSSKSTSGGTAALGCLVKDYFPEPVTVSWNSGALTSGVHTFPAVLQSSGLYSLSSVVTVPSSSLGTQTYICNVNHKPSNTKVDKRV[letters of human IgG1 Fc left out]
light: DIVMTQSPDSLAVSLGERATINCKASQSVDYDGDSYMNWYQQKPGKAPKLLIYGASNLESGIPDRFSGSGSGTDFTLTISRLEPEDAAVYYCQQSNEDPFTFGQGTKLEIKRTVAAPSVFIFPPSDEQLKSGTASVVCLLNNFYPREAKVQWKVDNALQSGNSQESVTEQDSKDSTYSLSSTLTLSKADYEKHKVYACEVTHQGLSSPVTKSFNRGEC
B2: VH5Vk3-ThioBridge®-VCP-MMAE (conjugate)
heavy: EVQLVESGGGLVQPGGSLKLSCAASGFTFSTFGIHWVRQAPGKGLEWVAYISGASTTIYYADSVKGRFTISRDNSKNTLYLQMNSLRAEDTAVYYCARYGTSFPYGLDYWGQGTLVTVSSASTKGPSVFPLAPSSKSTSGGTAALGCLVKDYFPEPVTVSWNSGALTSGVHTFPAVLQSSGLYSLSSVVTVPSSSLGTQTYICNVNHKPSNTKVDKRV[letters of human IgG1 Fc left out]
light: DIVMTQSPDSLAVSLGERATINCKASQSVDYDGDSYMNWYQQKPGKAPKLLIYGASNLESGIPDRFSGSGSGTDFTLTISRLEPEDAAVYYCQQSNEDPFTFGQGTKLEIKRTVAAPSVFIFPPSDEQLKSGTASVVCLLNNFYPREAKVQWKVDNALQSGNSQESVTEQDSKDSTYSLSSTLTLSKADYEKHKVYACEVTHQGLSSPVTKSFNRGEC

How the values were obtained:
EphA5− cells = assay: Antibody internalization, EphA5− cells; format: cell-based
[1] = test system: H460, A549 and H1299 human lung carcinoma cells; assay: Incucyte Human Fabfluor-pH Red antibody internalization; format: cell-based; details: naked mAb, real-time live cell imaging
Experimental: In vitro studies were conducted in which three different Eph5A-expressing target cell lines were incubated with various concentrations of VH5Vk3 or VH4Vk3 antibodies after which internalization of bound antibody was calculated. Antibody internalization was performed with the Incucyte® Human Fabfluor-pH Red Antibody Labeling Dye and the naked VH4Vk3 (FIG. 66) and VH5Vk3 (FIG. 67) human monoclonal antibodies in the following cell lines: H460 human lung carcinoma, A549 human lung carcinoma and H1299 human lung carcinoma. These cell lines express variable levels of EphA5 on the cell surface: H460 (+++)>A549 (++)=H1299 (++). Internalization was visualized and quantified using real-time live cell imaging analysis. The Fabfluor-pH Red Antibody Labeling Dye is sensitive to pH and only emits fluorescence once inside lysosomes in low pH conditions.

[2] = test system: PDX model TM00096 (BR085F), triple negative breast cancer; assay: PDX TM00096 efficacy; format: in vivo, mice; details: TM00096
Experimental: Test Animals. The present studies were performed using female NSG™ mice implanted with the PDX model TM00096 (BR085F) purchased from Jackson Laboratories. These mice are extremely immunodeficient and carry two mutations: severe combined immune deficiency (scid) and a complete null allele of the IL2 receptor common gamma chain (IL2rg^null). The scid mutation is a mutation in the DNA repair complex protein Prkdc and renders the mice B and T cell deficient. The IL2rg^null mutation prevents cytokine signaling through multiple receptors, leading to a deficiency in functional NK cells. This severe immunodeficiency allows the implantation of patient derived xenografts (PDX) and growth of human tissue-based tumors in the mice. These tumors have similar characteristics to the human tumors from which they are derived (e.g., gene expression) and are predictive of human response to therapeutic agents. The initial and final diagnosis of the patient from which the model was derived was invasive ductal carcinoma AJCC IIA/Grade 3. The primary site of the tumor was breast, sample for implantation was obtained from the metastatic site (lung). The tumor was not treatment naïve. The patient from which the sample was derived was a person. The sample was obtained by surgical resection. The host strain of the sample for engraftment was NOD.Cg-Prkdc^scid Il2rg^tm1Wj1/SzJ (aka NSG or NOD Scid gamma).
Mice received 5 weekly doses of ADC1 or ADC2, or 4 weekly doses of ADC3 or ADC4 at 10 mg/kg or PBS via tail vein injection. Animals were dosed on days 0, 7, 14, 21 and 28 followed by 2 weeks of observation (day 28-40) without treatment (or until cessation of study). The number of mice used per group averaged n=7-10 with some mice presenting with more than 1 tumor implanted subcutaneously. In those cases, each tumor size was measured and recorded independently. Measurements were performed 2-3 times weekly with the aid of a digital caliper (Fisherbrand™ Traceable™ Digital Carbon Fiber Calipers). Studies lasted an average of 40 days or until maximum allowed tumor volume was reached and/or skin ulceration was noted. All studies included a control group of an equal number of mice to those in the treatment group. Control groups received PBS tail vein injections and were submitted to the same handling procedures as TA treated mice. First treatment was administered when tumors reached 100-150 mm3 volume.

[3] = Body weight of tumor-bearing mice pre- and post-treatment, cell line xenograft studies
[4] = test system: A549 cell line-derived human lung cancer xenograft model; assay: A549 xenograft efficacy; format: in vivo, mice
H226 (EphA5-negative) = assay: Cell death time-course (Green Object Count), H226; format: cell-based, human; details: FIG. 4B

| Molecule | internalization of bound antibody (EphA5− cells) | internalization and lysosomal trafficking [1] | tumor response (tumor volume) ([2]; 10 mg/kg weekly tail vein, 5 doses (ADC1, ADC2) or 4 doses (ADC3, ADC4), here ADC2 = VH4Vk3-ThioBridge-VCP-MMAE) | tumors remaining at the end of the study ([2]; ADC2 = VH4Vk3-ThioBridge-VCP-MMAE) | tumors regressed completely ([2]; of 12 tumors (ADC1), of 10 tumors (ADC2 = VH4Vk3-ThioBridge-VCP-MMAE)) [tumors] | change in body weight, first dosing vs termination ([3]; A549 xenograft, 10 mg/kg) | change in body weight, first dosing vs termination ([3]; H460 xenograft, 10 mg/kg every 5 days, 3 doses) | change in body weight, first dosing vs termination ([3]; H522 xenograft, 10 mg/kg weekly, 3 doses) | tumor response ([4]; 10 mg/kg i.v. weekly, 3 doses) | tumor response of tumors progressing after VH5Vk3-ThioBridge®-(VCP-SN-38)2 ([4]; 10 mg/kg on days 20, 26 and 32, observed until day 38) | killing of EPHA5− cells (H226 (EphA5-negative)) |
| --- | --- | --- | --- | --- | --- | --- | --- | --- | --- | --- | --- |
| B1 | not EphA5− cells | confirmed receptor-mediated internalization and trafficking of both human monoclonal antibodies through the lysosomal compartment | – | – | – | – | – | – | – | – | – |
| B2 | – | – | full and sustained regression of tumors | Eight | 4 | No significant differences in the body weights | no significant changes in body weight | no significant changes | full regression of all tumors | tumor growth inhibition sustained from day 20-38 | not EPHA5− cells |
